Measured values published in paper PMC4336329 (PLoS ONE, 2015).
Out of some 310,000 compounds screened, about 14,000 (4.5%) showed an effect of 50% or more. Effects have a minus sign here. The list shows a part of the results.

target: human ether-à-go-go-related gene (hERG) potassium channel (human, UniProt Q12809); test: primary screen, population patch clamp on CHO cells stably expressing hERG
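Also: peak tail current of the secondary pulse compared with the same well before compound.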

human ether-à-go-go-related gene (hERG) potassium channel, sequence (Q12809 whole entry, looked up): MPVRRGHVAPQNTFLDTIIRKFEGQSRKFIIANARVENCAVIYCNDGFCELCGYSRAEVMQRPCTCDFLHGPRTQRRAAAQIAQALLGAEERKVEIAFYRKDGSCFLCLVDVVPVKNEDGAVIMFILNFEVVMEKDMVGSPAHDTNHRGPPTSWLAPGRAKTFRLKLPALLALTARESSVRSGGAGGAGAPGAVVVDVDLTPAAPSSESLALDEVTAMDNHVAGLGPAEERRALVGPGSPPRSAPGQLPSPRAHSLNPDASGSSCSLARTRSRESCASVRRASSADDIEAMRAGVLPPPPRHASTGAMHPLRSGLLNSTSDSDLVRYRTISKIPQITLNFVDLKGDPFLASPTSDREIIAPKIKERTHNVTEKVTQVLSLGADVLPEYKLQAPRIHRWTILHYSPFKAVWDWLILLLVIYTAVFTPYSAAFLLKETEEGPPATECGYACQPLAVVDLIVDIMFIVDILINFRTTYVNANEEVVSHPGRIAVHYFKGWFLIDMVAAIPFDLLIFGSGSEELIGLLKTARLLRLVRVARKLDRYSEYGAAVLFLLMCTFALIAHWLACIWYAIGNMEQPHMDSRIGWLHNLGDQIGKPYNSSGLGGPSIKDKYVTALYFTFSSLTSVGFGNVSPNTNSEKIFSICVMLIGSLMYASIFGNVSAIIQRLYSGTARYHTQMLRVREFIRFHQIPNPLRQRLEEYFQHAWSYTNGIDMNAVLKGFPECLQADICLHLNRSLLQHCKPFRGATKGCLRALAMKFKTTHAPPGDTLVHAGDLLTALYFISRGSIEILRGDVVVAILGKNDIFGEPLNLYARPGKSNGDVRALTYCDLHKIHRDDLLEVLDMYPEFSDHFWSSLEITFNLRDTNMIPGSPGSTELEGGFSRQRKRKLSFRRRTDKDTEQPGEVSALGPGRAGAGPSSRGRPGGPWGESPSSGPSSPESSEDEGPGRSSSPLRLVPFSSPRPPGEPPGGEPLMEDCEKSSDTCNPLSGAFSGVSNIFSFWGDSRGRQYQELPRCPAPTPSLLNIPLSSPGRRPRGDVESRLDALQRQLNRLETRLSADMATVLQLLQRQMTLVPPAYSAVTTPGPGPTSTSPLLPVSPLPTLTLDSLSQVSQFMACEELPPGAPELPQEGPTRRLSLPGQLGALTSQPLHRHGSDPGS

| SMILES | hERG current change (%, negative = inhibition) at 10uM [%] |
| --- | --- |
| CCOc1ccc(CNC(=S)N/N=C/c2ccncc2)cc1 | -1.2 |
| COc1cccc(OC(=O)CSc2nnc(-c3ccccc3Br)o2)c1 | 10.6 |
| O=C(Nc1cccc(C(F)(F)F)c1)C1CCCN(c2ncccn2)C1 (stereo not shown) | -53.4 |
| NC(=O)c1c(-c2ccc(Cl)cc2Cl)csc1NC(=O)Cc1ccccc1 | 2.33 |
| COc1ccc(OC)c(-c2csc(NC(=O)COC(=O)C3(C)CC3(Cl)Cl)n2)c1 (stereo not shown) | -3.11 |
| NS(=O)(=O)c1ccc(CNC(=O)CCC2CCCCC2)cc1 | -2.5 |
| O=C1CCC([N+](=O)[O-])C(C2CC=CCC2)N1 (stereo not shown) | 4.76 |
| Cc1ccc(NC(=O)CSc2nc(O)c(Cc3ccccc3)c(=O)n2-c2ccccc2)cc1 | 8.57 |
| O=C(Nc1nnc(COc2ccc(Cl)cc2)s1)c1ccc([N+](=O)[O-])cc1 | 4.86 |
| C=CCNc1sc(C(=O)c2ccc(C)cc2)c(N)c1C#N | 5.28 |
| Cc1ccc(CNC(=O)Cn2c(=O)oc3ccccc32)o1 | -3.87 |
| O=C(COC(=O)Cn1cnc2ccccc21)Nc1cccc(S(=O)(=O)N2CCOCC2)c1 | 16 |
| O=C(COC(=O)CC(c1ccccc1)c1ccccc1)Nc1cccc(F)c1 | 6.39 |
| Cc1cc(NC(=O)CCC(=O)N(CCC(C)C)C(C(=O)NC2CCCC2)c2ccccc2C)no1 (stereo not shown) | -21.5 |
| C[C@]12CC[C@H]3[C@@H](CC[C@]4(O)C[C@@H](O)CC[C@]34C=O)[C@@]1(O)CC[C@@H]2C1=CC(=O)OC1 | 14 |
| CC1=CC(C)(C(Cl)Cl)C(C)=CC1=O (stereo not shown) | 4.55 |
| CC1CCCCC1NS(=O)(=O)c1ccc(S(=O)(=O)N2CCN(CCC#N)CC2)cc1 (stereo not shown) | -31.4 |
| CCS(=O)(=O)N1Cc2ccccc2CC1C(=O)N(C)Cc1ccc(OC)c(F)c1 (stereo not shown) | 5.07 |
| COC(=O)c1cn(C(=O)c2ccc(F)cc2)c2ccccc12 | 3.99 |
| COc1ccc(Cc2nnc(NC(=O)CS(=O)(=O)c3ccc(C)cc3)s2)cc1OC | 4.16 |
| COCCNC(=O)c1sc2nc(-c3ccccc3)cn2c1C | -11.5 |
| Cc1ccc2cc(CN(Cc3nnnn3C3CCCCC3)CC3CCCO3)c(=O)[nH]c2c1 (stereo not shown) | -38.2 |
| O=C(NC(=S)Nc1ccccc1[N+](=O)[O-])c1ccccc1 | 6.17 |
| COc1ccc2cc3cc(C(=O)N4CC(C)CC(C)C4)oc3nc2c1 (stereo not shown) | -27.3 |
| CCN1CCN(CCCNC(=O)C2CCCN(c3nc4c(C)cc(C)cc4s3)C2)CC1 (stereo not shown) | -26.2 |
| CCS(=O)(=O)c1ncc(Cl)c(C(=O)Nc2ccc(S(=O)(=O)N(C)c3ccccc3)cc2)n1 | 15.5 |
| CCNc1cc(N2CCN(S(=O)(=O)c3ccc4c(c3)CCCC4)CC2)ccc1[N+](=O)[O-] | -7.77 |
| CCOC(=O)CCNC(=O)N1CCCC(C(=O)c2cccc(Cl)c2)C1 (stereo not shown) | -39.1 |

| SMILES | hERG current change (%, negative = inhibition) at 10uM [%] |
| --- | --- |
| O=[N+]([O-])c1cc([N+](=O)[O-])c2cc3ccccc3nc2c1 | 12.4 |
| O=C(CSC1=NCCS1)Nc1nc2c(s1)CCCC2 | -13 |
| CSc1cccc(NC(=O)Cc2ccccc2[N+](=O)[O-])c1 | 8.4 |
| COc1ccccc1/C=C1\SC(=S)N(CCC(=O)N2CCCCC2CCO)C1=O (stereo not shown) | 16.7 |
| Cc1ccc2oc(-c3ccc(NC(=O)c4ccc5c(c4)OCO5)cc3)nc2c1 | 10.9 |
| O=C(CCN1C(=O)c2cccnc2C1=O)NC1CCCCCC1 | 3.64 |
| CC(C)=C(NC(=O)c1ccccc1)C(=O)NCCCC(=O)O | 4.19 |
| CCOC(=O)c1ccc(COC(=O)CCc2nc(-c3ccccc3)c(-c3ccccc3)o2)cc1 | 1.13 |
| COc1ccc(C(CC(=O)O)NC(=O)Cc2ccccc2)cc1 (stereo not shown) | 3.36 |
| CCOC(=O)C1CCN(S(=O)(=O)c2cccc(-c3csc(C)n3)c2)CC1 | -53.5 |
| Br.Cc1ccc(SCc2cn3c(C)csc3n2)cc1 | -14.1 |
| COc1ccc(Br)cc1S(=O)(=O)N1CC(C)OC(C)C1 (stereo not shown) | -3.55 |
| COc1ccc(C(=O)CCC(C)(C)[N+](=O)[O-])cc1 | 11.4 |
| CCCCN(c1nc2ccccc2nc1Cl)S(=O)(=O)c1ccc(C)cc1 | 19.5 |
| COc1ccccc1C(=O)NC1CCN(C(=O)Nc2ccc(F)cc2)CC1 | 1.11 |
| COc1cccc(N=Cc2ccc(O)cc2O)c1 | 10.2 |
| Cc1c(NC(=O)CSc2nc(-c3ccco3)cc(C(F)(F)F)n2)c(=O)n(-c2ccccc2)n1C | -3.84 |
| O=C(CN1CCN(CCOCCO)CC1)N1c2ccccc2Sc2ccc(Cl)cc21 | -14.9 |
| CC(C)C(=O)c1cc2c(cc1NC(=O)c1cccs1)OCCO2 | 1.01 |
| N#CC1=C(N)NC(SCc2ccccc2)=C(C#N)C12CCCCC2 | -15.3 |
| O=c1[nH]c(=O)n(Cc2ccco2)c2c1C(C(F)(F)F)(C(F)(F)F)N=C(Cc1ccccc1)N2 | -2.7 |
| CCOC(=O)C1CCCN(C(=O)/C(=C/c2ccco2)NC(=O)c2ccccc2)C1 (stereo not shown) | 15.1 |
| COc1ccc(NC2=CC(=O)CC(c3ccccc3)C2)c(OC)c1 (stereo not shown) | -11.1 |
| CCOC(=O)c1ccc(NC(=O)C(C)N2C(=O)c3ccccc3C2=O)cc1 (stereo not shown) | -11.5 |
| Nc1ncnc(Nc2ccc(F)c(Cl)c2)n1 | 11.3 |
| COc1cccc(CN(C)C(c2ccccc2)c2ccccc2)c1OC | 17.5 |
| CCN(CC1COc2ccccc2O1)S(=O)(=O)c1ccc(C)cc1 (stereo not shown) | -3.87 |
